Experimental data reported in the supplement of paper PMC9151546.
Many values rest on one well or one pass, so single values are uncertain.

Key:
CHO-K1 [1] = assay: hypodiploid nuclei frequency (% of nucleated events); higher = more hypodiploid events (aneugenic)
Description: (§1)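 Flow-cytometric in vitro micronucleus assay (Litron MicroFlow) in CHO-K1 cells in 96-well plates, 19 concentrations (4.5-200 µM, n=1 per concentration). Without S9, cells were exposed for 24 h and sampled at 48 h. With Aroclor 1254-induced rat liver S9, cells were exposed for 3-4 h and sampled at 27-28 h. Read-outs are %MN and %hypodiploid nuclei relative to nucleated events, and relative survival as the nuclei-to-bead ratio versus the 1% DMSO vehicle control (x100).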

CHO-K1 [2] = assay: micronucleus frequency (% of nucleated events); higher = more micronuclei (genotoxic)
CHO-K1 [3] = assay: relative survival (nuclei to bead ratio vs DMSO control) (% of vehicle control); higher = more surviving cells
Description: as §1
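Wherever hypodiploid nuclei frequency (% of nucleated events) is given: hypodiploid nuclei gated on a flow cytometer with 488 nm excitation after SYTOX Green staining, cultures at 37 °C, positive controls vinblastine without S9 and cyclophosphamide with S9.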
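Wherever micronucleus frequency (% of nucleated events) is given: cells lysed with nuclei stained by SYTOX Green, then micronucleus-gated events counted against nucleated events by flow cytometry with 488 nm excitation.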
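Wherever relative survival (nuclei to bead ratio vs DMSO control) is given: Lysed-cell nuclei stained with SYTOX Green and counted against counting beads by flow cytometry at 488 nm excitation, with vinblastine (no S9) and cyclophosphamide (plus S9) as positive controls.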

c1cc2ccc3cccc4ccc(c1)c2c34 [Pyrene]
Conditions	hypodiploid nuclei frequency, CHO-K1 [1] [%]	micronucleus frequency, CHO-K1 [2] [%]	relative survival, CHO-K1 [3]
concentration: 4.5 (µM), S9 metabolic activation: with S9, exposure time: 3-4 hours	0.24	1.6	184
concentration: 4.5 (µM), S9 metabolic activation: without S9, exposure time: 24 hours	0.38	2.4	135
concentration: 5.63 (µM), S9 metabolic activation: with S9, exposure time: 3-4 hours	0.26	1.68	126
concentration: 5.63 (µM), S9 metabolic activation: without S9, exposure time: 24 hours	0.42	1.78	120
concentration: 7.04 (µM), S9 metabolic activation: with S9, exposure time: 3-4 hours	0.2	1.72	133
concentration: 7.04 (µM), S9 metabolic activation: without S9, exposure time: 24 hours	0.38	2.08	121
concentration: 8.8 (µM), S9 metabolic activation: with S9, exposure time: 3-4 hours	0.32	1.76	113
concentration: 8.8 (µM), S9 metabolic activation: without S9, exposure time: 24 hours	0.32	1.48	124
concentration: 11 (µM), S9 metabolic activation: with S9, exposure time: 3-4 hours	0.28	2.22	122
concentration: 11 (µM), S9 metabolic activation: without S9, exposure time: 24 hours	0.44	2.42	115
concentration: 13.7 (µM), S9 metabolic activation: with S9, exposure time: 3-4 hours	0.28	1.46	102
concentration: 13.7 (µM), S9 metabolic activation: without S9, exposure time: 24 hours	0.58	1.84	143
concentration: 17.2 (µM), S9 metabolic activation: with S9, exposure time: 3-4 hours	0.38	2.04	102
concentration: 17.2 (µM), S9 metabolic activation: without S9, exposure time: 24 hours	0.46	1.78	126
concentration: 21.5 (µM), S9 metabolic activation: with S9, exposure time: 3-4 hours	0.24	1.48	103
concentration: 21.5 (µM), S9 metabolic activation: without S9, exposure time: 24 hours	0.42	1.9	101
concentration: 26.8 (µM), S9 metabolic activation: with S9, exposure time: 3-4 hours	0.34	1.68	91.3
concentration: 26.8 (µM), S9 metabolic activation: without S9, exposure time: 24 hours	0.48	1.68	103
concentration: 33.6 (µM), S9 metabolic activation: with S9, exposure time: 3-4 hours	0.32	2.04	89.8
concentration: 33.6 (µM), S9 metabolic activation: without S9, exposure time: 24 hours	0.4	1.28	114
concentration: 41.9 (µM), S9 metabolic activation: with S9, exposure time: 3-4 hours	0.38	2.02	81.5
concentration: 41.9 (µM), S9 metabolic activation: without S9, exposure time: 24 hours	0.42	1.74	99.3
concentration: 52.4 (µM), S9 metabolic activation: with S9, exposure time: 3-4 hours	0.14	1.66	60.7
concentration: 52.4 (µM), S9 metabolic activation: without S9, exposure time: 24 hours	0.3	1.34	106
concentration: 65.5 (µM), S9 metabolic activation: with S9, exposure time: 3-4 hours	0.22	2.12	72.8
concentration: 65.5 (µM), S9 metabolic activation: without S9, exposure time: 24 hours	0.64	1.9	109
concentration: 81.9 (µM), S9 metabolic activation: with S9, exposure time: 3-4 hours	0.34	2.18	55.5
concentration: 81.9 (µM), S9 metabolic activation: without S9, exposure time: 24 hours	0.62	1.74	112
concentration: 102 (µM), S9 metabolic activation: with S9, exposure time: 3-4 hours	0.32	2.3	67.8
concentration: 102 (µM), S9 metabolic activation: without S9, exposure time: 24 hours	0.54	2.1	88.6
concentration: 128 (µM), S9 metabolic activation: with S9, exposure time: 3-4 hours	0.48	3.24	55.5
concentration: 128 (µM), S9 metabolic activation: without S9, exposure time: 24 hours	0.7	2.04	102
concentration: 160 (µM), S9 metabolic activation: with S9, exposure time: 3-4 hours	0.5	3.98	54.4
concentration: 160 (µM), S9 metabolic activation: without S9, exposure time: 24 hours	0.84	1.46	110
concentration: 200 (µM), S9 metabolic activation: with S9, exposure time: 3-4 hours	0.24	2.54	59.8
concentration: 200 (µM), S9 metabolic activation: without S9, exposure time: 24 hours	0.7	1.54	77.4
